{"source": "PubChem BioAssay AID1832", "about": "(Broad Institute, 2009)", "note": "Out of some 300,000 compounds screened, about 1,100 (0.37%) were called active. Inconclusive means that the source gave no clear call. Such entries were picked first, then a sample of the others.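 How the source made its calls: active means inhibition past about -25% in most replicates, and total fluorescence under double the plate's negative control median (limit read from the data); inconclusive means replicates evenly split on the limit, or fluorescence at least double controls; inactive means too little inhibition in most replicates.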", "data": [{"molecular_target": "Zinc finger protein mex-5 (Caenorhabditis elegans) (UniProt Q9XUB2)", "sequence (Q9XUB2 whole entry, looked up)": "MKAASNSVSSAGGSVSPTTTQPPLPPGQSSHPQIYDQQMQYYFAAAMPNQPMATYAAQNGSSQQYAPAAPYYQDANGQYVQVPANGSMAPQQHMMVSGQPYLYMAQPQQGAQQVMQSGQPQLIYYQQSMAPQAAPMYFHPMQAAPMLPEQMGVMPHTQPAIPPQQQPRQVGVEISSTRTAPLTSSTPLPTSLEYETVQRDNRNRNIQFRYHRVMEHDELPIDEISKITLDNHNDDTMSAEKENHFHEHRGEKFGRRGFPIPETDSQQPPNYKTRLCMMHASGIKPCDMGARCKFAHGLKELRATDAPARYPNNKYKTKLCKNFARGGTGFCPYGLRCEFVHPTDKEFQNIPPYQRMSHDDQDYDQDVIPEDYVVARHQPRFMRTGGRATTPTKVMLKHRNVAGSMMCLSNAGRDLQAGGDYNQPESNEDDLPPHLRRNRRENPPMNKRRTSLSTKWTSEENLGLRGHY", "experiment": "MEX-5 zinc finger RNA-binding disruptors – biochemical, C. elegans, fluorescence polarization, MLPCN library, primary screen (AID 1832);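 further: 0% = DMSO and -100% = 5 µM competing unlabeled TCR2 RNA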", "conditions": "MEX-5/FITC-TCR2 RNA binding, at 10 µM, active compounds read low", "values": [{"smiles": "Cc1ccc(S(=O)(=O)N2CCN(C(=O)C3CC3C)CC2)c(C)c1", "note": "(stereo not given)", "activity score (negative = inhibition of binding)": "inactive: 2.46%"}, {"smiles": "CCOC(=O)N1CCN(C(=O)c2ccc3c(c2)NC(=O)/C(=C\\c2ccc(OC)c(OC)c2)S3)CC1", "activity score (negative = inhibition of binding)": "inconclusive: -22.1%"}, {"smiles": "CCCCC1CN2CCc3c([nH]c4ccccc34)C2(C)C1", "note": "(stereo not given)", "activity score (negative = inhibition of binding)": "inactive: 0.23%"}, {"smiles": "COC(=O)c1ccc2c(c1)C(C)(C)C(/C=C/c1ccccc1O)=[N+]2C", "activity score (negative = inhibition of binding)": "inconclusive: 58.5% [fluorescent]"}, {"smiles": "CCN(CC)c1ccc(/C=C(/C#N)C(=O)NC(C)C)o1", "activity score (negative = inhibition of binding)": "inconclusive: 69.2% [fluorescent]"}, {"smiles": "Cc1[nH][nH]c(=O)c1N=Nc1ccc(S(N)(=O)=O)cc1", "activity score (negative = inhibition of binding)": "active: -58.9%"}, {"smiles": "COc1ccc(C(=O)/C=C2\\NCC3c4ccccc4CCN3C2=O)cc1", "note": "(stereo not given)", "activity score (negative = inhibition of binding)": "inconclusive: -16.8%"}, {"smiles": "Cc1cccc(NC(=O)c2sc3nc(-c4ccccc4)cn3c2C)n1", "activity score (negative = inhibition of binding)": "inconclusive: -24.9%"}, {"smiles": "COC1(OC)N=C(N)C2(C#N)C(c3ccc4c(c3)OCO4)C12C#N", "note": "(stereo not given)", "activity score (negative = inhibition of binding)": "inconclusive: -24.1%"}, {"smiles": "Fc1ccccc1Nc1nc2ccccc2n2nnnc12", "activity score (negative = inhibition of binding)": "inconclusive: 24.2% [fluorescent]"}, {"smiles": "N#CC(C(=O)NCCc1ccccc1)c1nc2ccccc2nc1N1CCCCC1", "note": "(stereo not given)", "activity score (negative = inhibition of binding)": "inconclusive: -60.9% [fluorescent]"}, {"smiles": "O=C(Cc1n[nH]c(=O)[nH]c1=O)N/N=C/c1c(O)ccc2ccccc12", "activity score (negative = inhibition of binding)": "inconclusive: -21.3%"}, {"smiles": "Cc1cccc(N2C(=O)c3cccc4c(N)ccc(c34)C2=O)c1", "activity score (negative = inhibition of binding)": "inconclusive: -140% [fluorescent]"}, {"smiles": "Cc1ccccc1C(=O)Nc1ccc2c(C#N)c3nc4ccccc4nc3n2c1", "activity score (negative = inhibition of binding)": "inactive: 1.78%"}, {"smiles": "CC(=O)n1c(C=Nc2ccc(Cl)cc2)c(O)c2ccccc21", "activity score (negative = inhibition of binding)": "inconclusive: -93.3% [fluorescent]"}, {"smiles": "Cc1cc[n+](-c2[nH]c(=O)sc2/C=N/NC([S-])=Nc2ccccc2)cc1C", "activity score (negative = inhibition of binding)": "inactive: -5.84%"}, {"smiles": "Cc1ccc(C)c(N(C)C(=O)c2coc(=O)c3ccccc23)c1", "activity score (negative = inhibition of binding)": "inconclusive: -14.9%"}, {"smiles": "C[n+]1cccc(/C=N/Nc2nc(Cl)c(C#N)c(Cl)c2Cl)c1", "activity score (negative = inhibition of binding)": "inactive: -5.46%"}, {"smiles": "O=S(=O)([O-])CCC[n+]1c(/C=C\\Nc2ccccc2)oc2ccc(-c3ccccc3)cc21", "activity score (negative = inhibition of binding)": "inconclusive: -17.9% [fluorescent]"}, {"smiles": "CC1CC1c1ccc(/C=C(\\C#N)C(=O)Nc2ccc(Cl)cc2)o1", "note": "(stereo not given)", "activity score (negative = inhibition of binding)": "inactive: 5.52%"}, {"smiles": "CCOc1ccc(/C=N/NC(=O)c2cc3c(OC)cccc3[nH]2)cc1", "activity score (negative = inhibition of binding)": "inactive: 4.71%"}, {"smiles": "O=C(NNC(=O)c1cnccn1)c1ccc(Cl)cc1", "activity score (negative = inhibition of binding)": "inconclusive: -22.7%"}, {"smiles": "Cc1ccc(/C=C\\c2nccc3c2[nH]c2ccccc23)cc1", "activity score (negative = inhibition of binding)": "inactive: 1.11%"}, {"smiles": "COc1ccc(NC(=O)c2ccc(NCCCN3CCOCC3)c([N+](=O)[O-])c2)cc1", "activity score (negative = inhibition of binding)": "inconclusive: -15.2%"}, {"smiles": "COC(=O)CCC(=O)OC1(C)C(=O)C2=CN(CCCOC(C)C)C(c3ccc(OC)cc3)=CC2=C(Br)C1=O", "note": "(stereo not given)", "activity score (negative = inhibition of binding)": "inconclusive: -24%"}, {"smiles": "O=C(Cc1c(O)c2ccccc2[nH]c1=O)NCc1cccc(F)c1", "activity score (negative = inhibition of binding)": "inactive: 3.2%"}, {"smiles": "CN(C)CCCN1C(=O)c2cccc3c(Br)ccc(c23)C1=O", "activity score (negative = inhibition of binding)": "inconclusive: -24.8%"}, {"smiles": "CC(=O)Nc1cccc(C2=CC(c3ccco3)n3ncnc3N2)c1", "note": "(stereo not given)", "activity score (negative = inhibition of binding)": "active: -87.2%"}, {"smiles": "O=C1c2cccc3cccc(c23)C(=O)N1CCc1ccccc1", "activity score (negative = inhibition of binding)": "inactive: -0.452%"}, {"smiles": "Cc1c(NC(=O)CSc2ccc(Cl)cc2)cccc1-c1nc2cc(Cl)ccc2o1", "activity score (negative = inhibition of binding)": "inconclusive: -23.2%"}, {"smiles": "COc1ccc(S(=O)(=O)NNC(=O)C(=O)NNc2ccccn2)cc1", "activity score (negative = inhibition of binding)": "inconclusive: -18.1%"}, {"smiles": "O=C(CN1CCC(n2nnc3cc(F)ccc32)CC1)NCCc1ccccc1", "activity score (negative = inhibition of binding)": "inconclusive: -16%"}, {"smiles": "O=C(O)/C=C/C(=O)NCCCc1ccccc1", "activity score (negative = inhibition of binding)": "inactive: -2.14%"}, {"smiles": "COc1ccc(N/C=C\\C(=O)c2ccc3ccccc3c2)cc1", "activity score (negative = inhibition of binding)": "inactive: 0.039%"}, {"smiles": "O=c1[nH]c(=S)[nH]c2c1C(c1ccc(Br)cc1)c1c([nH]c(=S)[nH]c1=O)O2", "activity score (negative = inhibition of binding)": "active: -70.9%"}]}]}
